From the BET-seq Pho4 binding data (Le et al. 2018)
The other results are listed elsewhere or left out. These are noisy estimates, calculated here from bound and input reads.

target: T1, Pho4 (S. cerevisiae) (UniProt P07270); assay: relative binding free energy (BET-seq); higher = weaker binding; details: reference: library average
T1 sequence: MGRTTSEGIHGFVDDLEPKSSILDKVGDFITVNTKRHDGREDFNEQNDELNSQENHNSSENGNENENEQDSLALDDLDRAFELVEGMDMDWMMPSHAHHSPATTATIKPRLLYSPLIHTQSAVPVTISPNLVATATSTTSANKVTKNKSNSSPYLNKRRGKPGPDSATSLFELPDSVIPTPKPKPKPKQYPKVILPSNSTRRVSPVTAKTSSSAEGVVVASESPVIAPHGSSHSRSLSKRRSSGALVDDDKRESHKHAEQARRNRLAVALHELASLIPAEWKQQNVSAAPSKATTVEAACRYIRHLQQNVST

Sequence	relative binding free energy [kJ/mol]
GGATTCACGTGTAGTT	1.34
GGGAGCACGTGATTGT	0.377
TGTGTCACGTGGAATG	0.879
AATTGCACGTGGTGGA	-0.293
TGGATCACGTGTTTCG	0.377
TACATCACGTGTTTTT	0.377
ATTGCCACGTGATGGG	-0.293
GGAGGCACGTGATGGA	0.167
GATGGCACGTGGTAGA	-0.335
ATTATCACGTGGCAGG	0.167
TGTTACACGTGTTTAA	0.502
TACTGCACGTGAGGGG	0.795
ATCAGCACGTGGCGGT	-0.544
GTTTTCACGTGGGTTA	0.879
GTAAACACGTGGCGGT	-0.335
TTGGACACGTGGCGTG	-0.335
CTGTGCACGTGTGAAT	0.167
TTTAGCACGTGTAACA	0.586
TGCTTCACGTGAAATG	1.97
GTTCTCACGTGGTAAG	1.05
ACTCGCACGTGGGTGT	-0.753
CAGGTCACGTGGAGGG	0.209
GATTTCACGTGATAGA	1.92
TTGAGCACGTGGTCAA	-0.628
GGAATCACGTGGGTCT	0.46

Sequence	relative binding free energy [kJ/mol]
AATAACACGTGTGAAG	1
ATGTGCACGTGTTATA	-0.377
AATGTCACGTGCGGGC	-0.0837
GTGAACACGTGAGTTT	1.51
AGATGCACGTGGGCGG	-0.669
CGTGGCACGTGGGCAA	-1.38
TGCTGCACGTGATGAA	0.628
TGTCTCACGTGTTAGG	0.753
GCGGTCACGTGGTGCA	0.209
TGTATCACGTGGATGT	0.126
GAGAGCACGTGTTTTT	0.0418
TGAGTCACGTGGTGAT	0.0418
TACGGCACGTGGAGTG	-0.795
TCTTTCACGTGTTAAG	0.92
TCAGACACGTGGTAGT	-0.377
AAGGTCACGTGGTTTA	0.753
AGTTTCACGTGGATTA	1
TGTTACACGTGTATTA	0.753
TGTGGCACGTGCTAAG	-0.879
TTTGGCACGTGTAAAA	0.92
AGAATCACGTGAAAGG	1.72
GTGTACACGTGGCGGC	-0.209
TGCTTCACGTGAGGTA	1.3
TTGTTCACGTGATCTT	1.55
AGGGACACGTGTTTGT	-0.293

Sequence	relative binding free energy [kJ/mol]
GGGAGCACGTGTTTTT	-0.126
AGGTGCACGTGGGGCT	-1.21
GTGGCCACGTGTGCGT	-0.0837
CTGGGCACGTGGTAAG	-0.293
TGGTACACGTGGCAGG	-0.0837
GGTGTCACGTGGCTGT	0.335
GAGGTCACGTGAGGGA	1.26
GATGACACGTGCTGGT	0.167
GGGGTCACGTGGTGCG	0.502
TGGTGCACGTGTGATG	0
GGTGGCACGTGTGCTG	-0.126
CAGATCACGTGTTTGT	0.0837
ATTTACACGTGGCGCG	0.418
TGGTACACGTGAGTGA	1.3
TGGCTCACGTGAGGCT	1.63
AGTGCCACGTGGTGTA	-1.26
TGGTGCACGTGAACGG	1.09
AGAGGCACGTGTCTGT	-0.544
AGGATCACGTGGTAGG	0.293
CCTGCCACGTGTGGGG	-0.0837
AGTGTCACGTGAGATG	0.879
GGAGTCACGTGACTGG	1.21
AGTATCACGTGGTTCT	0.209
GTGATCACGTGGAACG	1.46
GTCGGCACGTGATAAG	0.544

Sequence	relative binding free energy [kJ/mol]
TGCGCCACGTGGGTTG	-1.59
CGTTGCACGTGGTGAT	-0.251
TTATGCACGTGGTCGT	-0.711
GAAGGCACGTGGTCAG	-0.251
GTCTGCACGTGGTATG	-0.209
GTTTGCACGTGATTTC	0.753
GTAGTCACGTGAATTA	1.63
ATTTGCACGTGAGAGC	1.34
CTATTCACGTGAATGG	1.46
TTTCTCACGTGGGGGC	1.09
GAGTACACGTGGGGAA	-0.502
GAAGGCACGTGGGTAA	-0.628
ACGAACACGTGTGGGG	0.0418
AAGCGCACGTGGGTTT	-1.05
GTGTTCACGTGGTTCT	1.13
GATGTCACGTGATAAG	1.17
ATATTCACGTGTGTGG	0.879
TGTAGCACGTGGCGTA	-0.962
GCATTCACGTGGGTAT	0.879
TATAGCACGTGAAGTA	2.13
TGGAACACGTGGTTAA	0.251
GCGGGCACGTGTATGC	0.251
TTGCACACGTGTGATA	0.795
GAAGTCACGTGATTTA	1.72
ATATTCACGTGTCATG	0.544

Sequence	relative binding free energy [kJ/mol]
GGTAGCACGTGAGTTT	1.26
GGTCTCACGTGTTGTG	0.795
GGAATCACGTGTTAAT	1.51
GTTCACACGTGGTATT	0.418
TGGTGCACGTGCGTTA	-0.209
TAGTTCACGTGGAAGT	1.42
ATATACACGTGCTTGT	-0.335
TGTTGCACGTGGTTGA	-0.418
GCGGACACGTGTGTTT	0.628
TCTCTCACGTGTTGGT	0.753
AAAAACACGTGTGTGT	-0.418
CGGGGCACGTGGGCAG	-1
TGTATCACGTGTGTCC	0.669
CTCATCACGTGTAGGT	0.962
GATGACACGTGAGAGG	0.837
GGGAGCACGTGGGCAG	-1.34
ATCGGCACGTGTGGCT	0.335
TTGTACACGTGAGTTC	0.711
TCGGTCACGTGCTTTT	0.167
TGTCACACGTGGTATG	-0.753
TGGCGCACGTGTCGGA	-0.544
CAGGGCACGTGTTCGG	-0.628
TATGTCACGTGGGCGT	-0.0418
AGTGGCACGTGGCCAG	-0.544
ATTATCACGTGTATCG	0.628

Sequence	relative binding free energy [kJ/mol]
GTGTGCACGTGCTCGG	0.46
TTTTCCACGTGATGTG	0.879
CGGTACACGTGTATGG	0.335
TTAGGCACGTGACAGG	-0.0418
TGTGTCACGTGTTCTG	0.293
CTAGGCACGTGGGAAT	0
TGTTTCACGTGTGTTG	1.3
AGAGGCACGTGAAGTC	0.837
GCATGCACGTGTAGTG	-0.126
TGAGTCACGTGTAGAT	1.21
AAAGGCACGTGTTGCG	-0.753
GCAGGCACGTGGAATG	-0.0418
TAGAGCACGTGGGGAG	-1.38
CTGTGCACGTGTTAGT	0.167
ACTGGCACGTGGGCTT	-0.753
ATTCGCACGTGGAAGG	0.0837
CTGTTCACGTGGGTAC	0.46
TGTAACACGTGTATTT	0.0418
TTACGCACGTGGGTCG	-1
CTTTTCACGTGGGTAG	0.418
AAGCTCACGTGGCGGG	0.544
